In all, about 340,000 compounds went through this assay and about 6,900 (2%) were called active. Cut-off read from the data, not from the text of the source: active = inhibition above about 30%; inactive = below that, where a call was filed. The entries are a selection whose mix differs from that of the whole data set. The source gives no active or inactive call for entries shown without one.
The molecules below were run against D(2) dopamine receptor (Homo sapiens) (UniProt P14416) (assay: HTS Assay for Allosteric Antagonists of the Human D2 Dopamine Receptor: Primary Screen for Antagonists). Conditions: HEK293 TREx D2 cells, calcium flux, dopamine EC80; at 10 µM; stronger effect = higher value.
Outline: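 Calcium flux kinetic readout in an inducible HEK293 TREx D2 line plated overnight at 30 C. After 180 s compound exposure, an EC80 dopamine challenge follows with another 180 s kinetic read to detect antagonism.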
Note: 0% is about no effect.

Chain of UniProt P14416 (P14416 whole entry, looked up): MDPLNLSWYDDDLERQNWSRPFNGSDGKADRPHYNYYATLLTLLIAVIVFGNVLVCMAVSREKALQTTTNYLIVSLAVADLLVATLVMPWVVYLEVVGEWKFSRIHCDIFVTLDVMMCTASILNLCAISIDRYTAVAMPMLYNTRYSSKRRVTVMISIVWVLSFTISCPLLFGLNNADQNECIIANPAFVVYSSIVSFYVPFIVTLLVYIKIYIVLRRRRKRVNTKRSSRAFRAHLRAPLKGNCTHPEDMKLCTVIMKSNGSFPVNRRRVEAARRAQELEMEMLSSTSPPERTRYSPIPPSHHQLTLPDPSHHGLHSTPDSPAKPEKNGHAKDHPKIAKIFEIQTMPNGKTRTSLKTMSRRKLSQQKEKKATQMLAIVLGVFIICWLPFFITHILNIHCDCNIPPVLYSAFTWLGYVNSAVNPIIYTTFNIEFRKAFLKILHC

Going from `CCOc1ccc(NC(=O)Cn2c(=O)c(CNc3ccc(CC)cc3)cc3cc4c(cc32)OCO4)cc1` to `COc1ccc(NC(=O)Cn2c(=O)n(-c3ccc(C)cc3)c(=O)c3c2cnn3C)cc1`, the inhibition rises from -1.99% to 11.9%.

Going from `Cc1oc2ncn(CC(C)C)c(=O)c2c1C(=O)NC(C)c1ccccc1` (configuration not stated) to `CC(CNC(=O)CN1C(=O)c2cccnc2Oc2ccc(Cl)cc21)c1ccccc1` (configuration not stated), the inhibition rises from -0.77% to 7.28%.

Going from `Cc1cc(C)c2nc(NC(=O)c3ccc(S(=O)(=O)N4CCc5ccccc54)cc3)sc2c1` to `Cc1cccc(NC(=O)c2ccc3c(c2)CCN3S(=O)(=O)c2ccccc2)c1C`, the inhibition falls from 9.21% to -1.94%.

Going from `CCCS(=O)(=O)N1CC(=O)N(c2ccc(C)cc2)C(C)(C(=O)NC2CCCCCC2)C1` (configuration not stated) to `COc1ccc(CCNC(=O)c2cn(C)c3ccc(S(=O)(=O)N(C)C4CCCCC4)cc3c2=O)cc1OC`, the inhibition falls from 13.5% to -11.5%.

Compared with `COc1ccc(CCNC(=O)c2cc3sccc3n2Cc2ccc(Cl)cc2)cc1OC`, `COc1ccc(NC(=O)c2cnc(Nc3ccc(C)c(Cl)c3)c3ccccc23)cc1OC` is higher in inhibition: -18.4% for the first, 10.9% for the second.

Going from `CCOc1ccccc1CN1CCc2nc(Nc3ccc4c(c3)OCCO4)ncc2C1` to `CCOc1ccccc1N1CC(c2nc3ccccc3n2Cc2c(C)cc(C)cc2C)CC1=O` (configuration not stated), the inhibition falls from 5.75% to 2.97%.

Going from `O=C(CSc1nc(Nc2ccc(F)cc2)c2ccccc2n1)c1ccc(F)cc1` to `COc1ccc(NC(=O)CSc2cc(-c3ccccc3)nc(C)n2)cc1`, the inhibition falls from 9.47% to 8.01%.

Compared with `Cc1cccc(-n2c(C)nc3cc(C(=O)NCCC4=CCCCC4)ccc32)c1`, `CC1=Nc2cc(C(=O)NCCc3ccccc3)ccc2Sc2c(C)ccc(C)c21` is lower in inhibition: 4.98% for the first, 2% for the second.

Going from `O=C(NCc1nc2ccccc2[nH]1)c1c(F)cccc1F` to `O=C(NCc1ccccc1)c1nc(S(=O)(=O)Cc2ccccc2)ncc1Cl`, the inhibition falls from 15.2% to 12.6%.

Compared with `COc1ccc(NC(=O)CCNS(=O)(=O)c2cccc3nsnc23)cc1Cl`, `CCC(=O)Nc1ccc2nc(SCCOc3ccc(C)cc3)sc2c1` is lower in inhibition: 10.2% for the first, -10.5% for the second.

First: CCn1c(=O)cc(OCC(=O)N2CCN(c3ccc(OC)cc3)CC2)c2ccccc21
Second: COc1ccccc1N1CCN(S(=O)(=O)CCNC(=O)COc2ccc(C(C)C)cc2)CC1
The inhibition of the first is higher: 16.6% for the first, -7.93% for the second.

Compared with `COc1cccc(OC)c1C(=O)Nc1nc2c(s1)CCc1ccccc1-2`, `COc1ccc(Nc2nc3c(S(=O)(=O)c4ccccc4)nnn3c3ccsc23)cc1OC` is lower in inhibition: 13.4% for the first, 10.2% for the second.

Going from `Cc1ccc(NC(=O)Nc2sc3nc4n(c(=O)c3c2C)CCC(C)CC4)c(Cl)c1` (configuration not stated) to `Cc1ccc(NC(=O)Cn2nc(C)n3cccc3c2=O)c(C)c1`, the inhibition falls from 13.4% to -6.5%.

First: COC(=O)c1ccc(NC(=O)N2CCN(Cc3cc(=O)n4nc(-c5ccc(C)cc5)sc4n3)CC2)cc1
Second: COc1ccc(C)cc1NC(=O)c1ccc(=O)n(Cc2ccccc2)c1
The inhibition of the first is higher: -5.84% for the first, -27.5% for the second.

First: COc1ccc(-c2noc(-c3ccc(N4CCN(c5ccccc5)CC4)c([N+](=O)[O-])c3)n2)cc1
Second: Cc1ccc(C)c(N2CCN(C3=C(c4ccccc4)C(=O)c4ccccc43)CC2)c1
The inhibition of the first is higher: 17.4% for the first, -8.61% for the second.

Compared with `COc1ccc2cc3cc(C(=O)N4CCN(c5ccccc5F)CC4)oc3nc2c1`, `COc1cccc(N2CCN(C(=O)c3cnn(-c4ccc(C)cc4C)c3C3CCN(C(=O)OC(C)(C)C)CC3)CC2)c1` is higher in inhibition: 1.18% for the first, 11.7% for the second.

Going from `CCCOc1ccc(C2CC(=O)Nc3c2c(C)nn3-c2nncc(-c3cccc(OC)c3)n2)cc1OC` (configuration not stated) to `COc1cccc(C2=CC(c3cc(Br)ccc3F)n3nnnc3N2)c1` (configuration not stated), the inhibition falls from 0.404% to -18.3%.

Going from `Cc1cccc(N2C(=O)CSC23C(=O)N(CC(=O)NCc2ccccc2Cl)c2ccccc23)c1` (configuration not stated) to `COc1cccc(-n2c(=O)c3c(C)c(C)sc3n(CC(=O)NCc3ccccc3)c2=O)c1`, the inhibition rises from 0.92% to 1.53%.

First: COc1ccc(CCNC(=O)C(=O)NCC(c2ccco2)S(=O)(=O)c2ccccc2)cc1 (configuration not stated)
Second: CCOCCCNC(=O)C(c1ccc(OC)cc1)N(Cc1ccc2c(c1)OCO2)C(=O)c1ccccc1O (configuration not stated)
The inhibition of the first is higher: -12% for the first, -24.9% for the second.

First: O=C(Cn1c(SCCOc2ccc(Cl)cc2)nc2ccccc21)N1CCCCC1
Second: CCOC(=O)C1CCCN(C(=O)c2ccc(-n3ccc4ccccc43)s2)C1 (configuration not stated)
The inhibition of the first is higher: 13.1% for the first, 0.121% for the second.

First: COc1ccc(-c2nnc3n2N(C(C)=O)C(c2ccc(Cl)c(Cl)c2)=C(C(C)=O)S3)cc1
Second: COc1ccc(-c2nsc(NC(=O)C(C)Oc3ccc(Cl)c(C)c3)n2)cc1 (configuration not stated)
The inhibition of the first is lower: -4.34% for the first, 12.4% for the second.

Compared with `COc1ccc(N2CC(C(=O)NCc3nnnn3-c3ccc(C)c(C)c3)CC2=O)cc1` (configuration not stated), `COc1ccc(OC)c(CCNC(=O)c2cnn(-c3ccccc3Cl)c2C2CCN(C(=O)OC(C)(C)C)CC2)c1` is lower in inhibition: 5.22% for the first, 2.9% for the second.

Compared with `Cc1ccccc1C(=O)Nc1c(C)nc(Nc2ccccc2)nc1Nc1ccccc1`, `Cc1ccc(-n2c(SCC(=O)Nc3cccc(C)c3)nc3c(oc4ccccc43)c2=O)cc1` is lower in inhibition: 9.91% for the first, -17% for the second.

Compared with `CC(=O)N1c2ccc(S(=O)(=O)NCC3CCC(C(=O)Nc4cccc(C)c4C)CC3)cc2CC1C` (configuration not stated), `CC(=O)N1c2c(cc(Br)cc2S(=O)(=O)N2CCN(c3cccc(Cl)c3)CC2)CC1C` (configuration not stated) is lower in inhibition: 19.1% for the first, -8.3% for the second.

First: Cc1cccc(N2CCN(C(=O)c3cc4c(=O)n(C)c5ccccc5c4s3)CC2C)c1 (configuration not stated)
Second: Cc1cccc(C(=O)Nc2c(C(=O)NCc3ccc(Cl)cc3)sc3nc(C)cc(C)c23)c1
The inhibition of the first is higher: -7.81% for the first, -7.85% for the second.

Going from `CCCN(CCC)CCNC(=O)c1ccc2c(c1)NC(=O)C(CS(=O)(=O)Cc1cccc(Br)c1)N2` (configuration not stated) to `CCCN(CCC)C(=O)Cn1c(=O)n(-c2ccc(OC)cc2)c(=O)c2ccc(C(=O)NCc3ccc(C)cc3)cc21`, the inhibition falls from -4% to -19.8%.

Compared with `Cc1sc2ncn(CC(=O)N3CCN(c4cccc(Cl)c4)CC3)c(=O)c2c1S(=O)(=O)N1CCN(c2ncccn2)CC1`, `Cc1sc2ncn(CC(=O)N3CCN(c4ccc(Cl)cc4)CC3)c(=O)c2c1S(=O)(=O)N1CCN(c2ncccn2)CC1` is higher in inhibition: 3.45% for the first, 5.85% for the second.

Compared with `COc1ccc(NC(=O)c2ccc3c(SCC(=O)O)c4c(nc3c2)CCC4)c(OC)c1`, `COc1ccccc1NC(=O)C1=C(C)Nc2nnnn2C1c1cc(Br)c(O)c(OC)c1` (configuration not stated) is lower in inhibition: 3.52% for the first, -6.64% for the second.

Going from `COc1ccc(-c2nc(SCc3cc(=O)c4cc(C)ccc4[nH]3)n[nH]2)cc1` to `COc1cccc(-c2ccc3c(N)c(C(=O)Nc4cc(F)ccc4F)sc3n2)c1`, the inhibition falls from 4.5% to -23.6%.

Going from `COc1ccc(-c2nc(C)c(CCNC(=O)C(=O)Nc3cc(C)cc(C)c3)s2)cc1OC` to `COc1ccc(/C=C/c2nc(C#N)c(NCCc3ccccc3)o2)cc1OC`, the inhibition rises from 8.04% to 16.9%.

Going from `Cc1ccc(C)c(Cn2c(=O)cc(C)c3c(C)nn(-c4cccc(F)c4)c32)c1` to `Cc1nn(CC(=O)Nc2ccccc2F)c(=O)c2c(C)n(-c3ccc(Cl)cc3)nc12`, the inhibition rises from -14.5% to -5.73%.

First: CC(=O)Nc1ccc(S(=O)(=O)Nc2cc(-c3cn4ccccc4n3)ccc2C)cc1
Second: CCS(=O)(=O)c1ncc(N(Cc2ccc(F)cc2)Cc2ccco2)c(C(=O)Nc2cc(C)ccc2C)n1
The inhibition of the first is lower: -11.6% for the first, 1.75% for the second.

Going from `COC(=O)c1cc2occc2n1Cc1nc(-c2cccc(Cl)c2)oc1C` to `CCOC(=O)c1cc2c(=O)n3ccccc3nc2n(Cc2ccco2)c1=NC(=O)c1c(F)cccc1Cl`, the inhibition falls from 13.1% to -9.22%.

Going from `CC(C)CCNC(=O)C1CCN(c2nc3ccc(Cl)cc3[nH]2)CC1` to `CCOC(=O)C1CCN(C(=O)CN2c3ccc(CC)cc3-c3ccccc3S2(=O)=O)CC1`, the inhibition rises from -14% to -12.8%.

Compared with `CCOC(=O)c1c(C)[nH]c(C)c1S(=O)(=O)N(C)CC(=O)Nc1ccc(C)c(N(C)C)c1`, `COC(=O)c1c(C)oc2ccc(N(C(=O)c3ccncc3)S(=O)(=O)c3c(C)cc(C)cc3C)cc12` is higher in inhibition: 8.25% for the first, 14.7% for the second.

Going from `Cc1ccc(Cn2c(SCC(=O)C(C)(C)C)nc3ccsc3c2=O)cc1` to `CCCn1c(NCc2ccc(N(CC)CC)cc2)nc2ccccc21`, the inhibition falls from -0.15% to -8.38%.

First: CC(C)(C)c1ccc(C(=O)NC2(C(F)(F)F)C(=O)Nc3c2c(=O)[nH]c(=O)n3-c2ccccc2)cc1 (configuration not stated)
Second: O=c1c2cnn(-c3ccc(Cl)cc3)c2ncn1Cc1cccc(C(F)(F)F)c1
The inhibition of the first is lower: 3.58% for the first, 4.78% for the second.

Compared with `Cc1cccn2c(=O)c3cc(C(=O)NCc4cccnc4)c(=N)n(CCCO)c3nc12`, `CN1CCc2nc3sc(C(=O)Nc4ccccc4OC(F)(F)F)c(N)c3cc2C1` is lower in inhibition: -5% for the first, -13.3% for the second.

Compared with `CN1CCN(c2nc3c(S(=O)(=O)c4ccccc4)nnn3c3ccsc23)CC1`, `CCOc1ccc(-c2csc(/C(C#N)=C/c3ccc(Br)cc3)n2)cc1` is higher in inhibition: 0.156% for the first, 9.42% for the second.

In the case of `O=C(c1cc2ccccc2o1)N1CC=C(c2ccccc2)CC1`, the inhibition is reported as active: 46.1%.
With `COc1cccc(OC)c1C(=O)OCC(=O)NC1CCCCCC1` the inhibition was active: 81.9%.
`Cc1ccc(OCC(O)CN2CCN(c3ccc(C)cc3)CC2)cc1` (configuration not stated) was tested, and the inhibition was active: 53.2%.
`O=C(NC1CCN(Cc2ccc(F)cc2)CC1)c1ccccc1` was tested, and the inhibition was active: 115%.
`N#Cc1ccc(NC(=O)COC(=O)CSc2nnc(-c3ccc(Cl)cc3)o2)cc1` was tested, and the inhibition was active: 31.3%.
For `O=S(=O)(c1ccc(OCC(O)CN2CCN(c3ccc(F)cc3)CC2)cc1)N1CCOCC1` (configuration not stated), the inhibition was active: 66.8%.
`CSCCC(NC(=O)c1ccccc1)C(=O)NCc1ccc(S(N)(=O)=O)cc1` (configuration not stated) was tested, and the inhibition was active: 31.4%.
For `CCOc1ccc(NC(=O)CN(c2ccc(OC)c(OC)c2)S(=O)(=O)c2ccc(C)cc2)cc1`, the inhibition was active: 55%.
In the case of `O=C(Cn1c(=O)c2cccn2c2ccc(F)cc21)NCCCN1CCN(c2ccccc2F)CC1`, the inhibition is reported as active: 81.8%.
For `CCN(C(=O)N(CC)c1ccccc1)c1ccccc1`, the inhibition was active: 42.5%.
For `CCCCNCCCOc1cccc(Cl)c1Cl`, the inhibition was active: 87.3%.
With `CCc1noc(C)c1C(=O)NNC(=O)c1nn(C)c(=O)c2ccccc12` the inhibition was active: 56.7%.
`CCN1CCN(c2c(S(=O)(=O)c3ccc(C)c(C)c3)cnc3ccc(F)cc23)CC1` was tested, and the inhibition was active: 37.1%.
For `Cn1c(=O)c(NCCc2ccccc2)c2c3c(cccc31)C(=O)c1ccccc1-2`, the inhibition was active: 71.7%.

Source: PubChem BioAssay AID485344 (National Center for Advancing Translational Sciences (NCATS), 2010)
